For assay [1], the system named is A. fumigatus TR34/L98H (F10017, an azole resistant strain). The note with it: Aspergillus fumigatus, read-out: MIC99 A. fumigatus TR34/L98H. How it is done:
The Minimum Inhibitory Concentration (MIC, at 99% inhibition) of the compounds was determined using the broth microdilution method as recommended by EUCAST (EUCAST Definitive Document E.DEF 9.3.2, Method for the determination of broth dilution minimum inhibitory concentrations of antifungal agents for conidia forming moulds and EUCAST Definitive Document E.DEF 7.3.2 Method for the determination of broth dilution minimum inhibitory concentrations of antifungal agents for yeasts).

Assay [2] has as its system T. congolense IL3000 (a drug sensitive wild type). The assay can be described thus: Resazurin-based (Alamar blue) drug sensitivity assay. The note with it: Trypanosoma congolense, read-out: IC50 T. congo. For orientation: Resazurin is reduced to fluorescent resorufin, in cell work by metabolically active cells.
Assay [3] deals with T. b. brucei Lister S427 (a drug-sensitive wild type). Described as above. Particulars: for T.b. brucei Selectivity Indices (SI, IC50 (μM)/IC50 (μM)) Group / T.b. brucei Selectivity Index (SI, IC50 (μM)/IC50 (μM)), numeric value: cytotoxicity against HEK293 cells vs T.b. brucei; for pIC50: Trypanosoma brucei, read-out: IC50 T.b. brucei.

pIC50: −log10 of the molar value. ≈ marks a conversion by molar mass, not a printed value. Bounds are passed on as bounds.

A word on the pIC50: it is the IC50 on a negative log10 scale, so that one unit is a factor of ten.

Take `C/N=C(\CCNC(=O)c1cc(NC(=O)c2cc(NC(=O)c3ccc(/C=C/c4ccc(N(C)C)cc4)nc3)cn2C)cn1C)NC` [Ia8, 6-((E)-4-(dimethylamino)styryl)-N-(1-methyl-5-((1-methyl-5-(((E)-3-(methylamino)-3-(methylimino)propyl)carbamoyl)-1H-pyrrol-3-yl)carbamoyl)-1H-pyrrol-3-yl)nicotinamide]: the MIC99 in assay [1] lay within 5 to 25 µg/mL (≈ 8.2 to 41 µM).

On to `COCCOCC[N+](C)(C)CCNC(=O)c1cc(NC(=O)c2cc(NC(=O)c3ccc(/C=C/c4cnc5ccccc5c4)cc3)cn2C)cn1C` [Ic18, (E)-2-(2-methoxyethoxy)-N,N-dimethyl-N-(2-(1-methyl-4-(1-methyl-4-(4-(2-(quinolin-3-yl)vinyl)benzamido)-1H-pyrrole-2-carboxamido)-1H-pyrrole-2-carboxamido)ethyl)ethan-1-aminium], for which the pIC50 in assay [2] and in assay [3] was 6.60 to 7.30 throughout. In addition, the MIC99 in assay [1] is 25 to 50 µg/mL. Also, the “T.b. brucei Selectivity Indices (SI, IC50 (μM)/IC50 (μM)) Group” value (“T.b. brucei Selectivity Indices” for short) in assay [3] (Quaternary ammoniums) was “B (Group B: 40 < SI <= 80)”.

In the case of `[H]/N=C(\CCNC(=O)c1cc(NC(=O)c2cc(NC(=O)c3ccc(C=Cc4ccc5nonc5c4)cc3)cn2C)cn1C)N1CCSCC1` [Ib8, (E)-4-(4-(2-(benzo[c][1,2,5]oxadiazol-5-yl)vinyl)benzamido)-N-(5-((3-imino-3-thiomorpholinopropyl)carbamoyl)-1-methyl-1H-pyrrol-3-yl)-1-methyl-1H-pyrrole-2-carboxamide], the pIC50 was 6.60 to 7.30 in assay [2] and above 7.30 in assay [3]. Also, the MIC99 in assay [1] lay within 5 to 25 µg/mL (≈ 7.51 to 37.5 µM).

Turning to `[H]/N=C(\CCNC(=O)c1cc(NC(=O)c2cc(NC(=O)c3ccc(C=Cc4ccc(N(C)C)cc4)nc3)cn2C)cn1C)NC` [Ia9, (E)-6-(4-(dimethylamino)styryl)-N-(5-((5-((3-imino-3-(methylamino)propyl)carbamoyl)-1-methyl-1H-pyrrol-3-yl)carbamoyl)-1-methyl-1H-pyrrol-3-yl)nicotinamide], the pIC50 in assay [2] and in assay [3] was 6.00 to 6.60 in each case. The MIC99 in assay [1] is 5 to 25 µg/mL (≈ 8.39 to 42 µM).

As to `[H]/N=C(\CCNC(=O)c1cc(NC(=O)c2cc(NC(=O)c3ccc(C=Cc4ccc5nonc5c4)cc3)cn2C)cn1C)N1CCCCC1` [Ib2, (E)-4-(4-(2-(benzo[c][1,2,5]oxadiazol-5-yl)vinyl)benzamido)-N-(5-((3-imino-3-(piperidin-1-yl)propyl)carbamoyl)-1-methyl-1H-pyrrol-3-yl)-1-methyl-1H-pyrrole-2-carboxamide], the pIC50 in assay [2] and in assay [3] was above 7.30 each time. In addition, the MIC99 in assay [1] was in the range of 5 to 25 µg/mL (≈ 7.72 to 38.6 µM).

In the case of `CN(C)c1ccc(/C=C/c2ccc(C(=O)Nc3cc(C(=O)Nc4c[nH]c(C(=O)NCCN5CCOCC5)c4)n(C)c3)cn2)cc1` [IIIb3, (E)-6-(4-(dimethylamino)styryl)-N-(1-methyl-5-((5-((2-morpholinoethyl)carbamoyl)-1H-pyrrol-3-yl)carbamoyl)-1H-pyrrol-3-yl)nicotinamide], in assay [1], the MIC99 was above 50 µg/mL.

As to `[H]/N=C(\CCNC(=O)c1cc(NC(=O)c2cc(NC(=O)c3ccc(C=Cc4ccc5nonc5c4)cc3)cn2C)cn1C)N1CCOCC1` [Ib6, (E)-4-(4-(2-(benzo[c][1,2,5]oxadiazol-5-yl)vinyl)benzamido)-N-(5-((3-imino-3-morpholinopropyl)carbamoyl)-1-methyl-1H-pyrrol-3-yl)-1-methyl-1H-pyrrole-2-carboxamide], the pIC50 in assay [2] was 6.00 to 6.60; in assay [3], below 6.00. Further, the MIC99 in assay [1] is 25 to 50 µg/mL (≈ 38.5 to 77 µM).

Consider `CCCCNC(=N)CCNC(=O)c1cc(NC(=O)c2cc(NC(=O)c3ccc(/C=C/c4cnc5ccccc5c4)cc3)cn2C)cn1C` [Ia34, (E)-N-(3-(butylamino)-3-iminopropyl)-1-methyl-4-(1-methyl-4-(4-(2-(quinolin-3-yl)vinyl)benzamido)-1H-pyrrole-2-carboxamido)-1H-pyrrole-2-carboxamide], for which the pIC50 in assay [2] is 6.60 to 7.30. The MIC99 in assay [1] lay in the range of 25 to 50 µg/mL (≈ 38.8 to 77.5 µM). Moreover, the “T.b. brucei Selectivity Indices” value in assay [3] (Alkyl Amidines and NH Pyrroles) is “B (Group B: 70 < SI <= 150)”. For the same molecule, in assay [3], the pIC50 is 6.60 to 7.30 and the “T.b. brucei Selectivity Index (SI, IC50 (μM)/IC50 (μM)), numeric value” (shortened to “T.b. brucei Selectivity Index”) came out at 130.

For the molecule `C/N=C(/CCNC(=O)c1cc(NC(=O)c2cc(NC(=O)c3ccc(/C=C/c4nc5ccccc5s4)cc3)cn2C)cn1C)NC` [Ia11, 4-(4-((E)-2-(benzo[d]thiazol-2-yl)vinyl)benzamido)-1-methyl-N-(1-methyl-5-(((Z)-3-(methylamino)-3-(methylimino)propyl)carbamoyl)-1H-pyrrol-3-yl)-1H-pyrrole-2-carboxamide], the pIC50 in assay [2] was 6.60 to 7.30; in assay [3], 6.00 to 6.60. In assay [1], the MIC99 fell in the range of 5 to 25 µg/mL (≈ 8.03 to 40.1 µM).

Consider `CCNC(=N)CCNC(=O)c1cc(NC(=O)c2cc(NC(=O)c3ccc(/C=C/c4ccc(OC)cc4)nc3)cn2C)cn1C` [Ia24, (E)-N-(5-((5-((3-(ethylamino)-3-iminopropyl)carbamoyl)-1-methyl-1H-pyrrol-3-yl)carbamoyl)-1-methyl-1H-pyrrol-3-yl)-6-(4-methoxystyryl)nicotinamide], for which the pIC50 in assay [2] is 6.60 to 7.30; in assay [3], 6.00 to 6.60. Further, the MIC99 in assay [1] is 25 to 50 µg/mL (≈ 41.9 to 83.8 µM). Further, in assay [3] (Alkyl Amidines and NH Pyrroles), the “T.b. brucei Selectivity Indices” value is on record as “B (Group B: 70 < SI <= 150)”.

In the case of `[H]/N=C(\CCNC(=O)c1cc(NC(=O)c2cc(NC(=O)c3ccc(C=Cc4ccc(N(C)C)cc4)nc3)cn2C)cn1C)NCCCCCCCCC` [Ia32, (E)-6-(4-(dimethylamino)styryl)-N-(5-((5-((3-imino-3-(nonylamino)propyl)carbamoyl)-1-methyl-1H-pyrrol-3-yl)carbamoyl)-1-methyl-1H-pyrrol-3-yl)nicotinamide], the MIC99 in assay [1] is above 50 µg/mL. Moreover, the “T.b. brucei Selectivity Indices” value in assay [3] (Alkyl Amidines and NH Pyrroles) was “B (Group B: 70 < SI <= 150)”. In assay [3], the pIC50 is 6.60 to 7.30 and the “T.b. brucei Selectivity Index” value is reported as 106.

`CC/N=C(\N)CCNC(=O)c1cc(NC(=O)c2cc(NC(=O)c3ccc(/C=C/c4cnc5ccccc5c4)cc3)cn2C)cn1C` [Ia14, N—((Z)-3-amino-3-(ethylimino)propyl)-1-methyl-4-(1-methyl-4-(4-((E)-2-(quinolin-3-yl)vinyl)benzamido)-1H-pyrrole-2-carboxamido)-1H-pyrrole-2-carboxamide]: the values for the pIC50 in assay [2] and in assay [3] were 6.60 to 7.30 and above 7.30, respectively. In assay [1], the MIC99 lay within 25 to 50 µg/mL (≈ 40.5 to 81.1 µM). Besides, the “T.b. brucei Selectivity Indices” value in assay [3] (Alkyl Amidines and NH Pyrroles) is reported as “D (Group D: SI > 300)”. Also, the “T.b. brucei Selectivity Index” value in assay [3] is given as 863.

Take `Cn1cc(NC(=O)c2cc(NC(=O)c3ccc(/C=C/c4cnc5ccccc5c4)cc3)cn2C)cc1C(=O)NCCC(=N)N1CCOCC1` [Ib5, (E)-N-(3-imino-3-morpholinopropyl)-1-methyl-4-(1-methyl-4-(4-(2-(quinolin-3-yl)vinyl)benzamido)-1H-pyrrole-2-carboxamido)-1H-pyrrole-2-carboxamide]: the pIC50 in assay [2] was 6.60 to 7.30. In addition, the MIC99 in assay [1] is 5 to 25 µg/mL (≈ 7.59 to 37.9 µM). In addition, the “T.b. brucei Selectivity Indices” value in assay [3] (Alkyl Amidines and NH Pyrroles) is “D (Group D: SI > 300)”. Further, in assay [3], the pIC50 was 6.60 to 7.30 and the “T.b. brucei Selectivity Index” value is recorded as 346.

Regarding `Cn1cc(NC(=O)c2cc(NC(=O)c3ccc(/C=C/c4cnc5ccccc5c4)cc3)cn2C)cc1C(=O)NCCC(=N)N1CCSCC1` [Ib7, (E)-N-(3-imino-3-thiomorpholinopropyl)-1-methyl-4-(1-methyl-4-(4-(2-(quinolin-3-yl)vinyl)benzamido)-1H-pyrrole-2-carboxamido)-1H-pyrrole-2-carboxamide], the pIC50 in assay [2] and in assay [3] was 6.60 to 7.30 throughout. For the same molecule, the MIC99 in assay [1] is 5 to 25 µg/mL (≈ 7.41 to 37 µM). The “T.b. brucei Selectivity Indices” value in assay [3] (Alkyl Amidines and NH Pyrroles) is on record as “D (Group D: SI > 300)”. The “T.b. brucei Selectivity Index” value in assay [3] worked out at 332.

For the molecule `C/N=C(/CCNC(=O)c1cc(NC(=O)c2cc(NC(=O)c3ccc(/C=C/c4ccc5nonc5c4)cc3)cn2C)cn1C)NC` [Ia6, 4-(4-((E)-2-(benzo[c][1,2,5]oxadiazol-5-yl)vinyl)benzamido)-1-methyl-N-(1-methyl-5-(((Z)-3-(methylamino)-3-(methylimino)propyl)carbamoyl)-1H-pyrrol-3-yl)-1H-pyrrole-2-carboxamide], the values for the pIC50 in assay [2] and in assay [3] were above 7.30 and 6.60 to 7.30, respectively. The MIC99 in assay [1] was below 5 µg/mL.

For `C/N=C(/CCNC(=O)c1cc(NC(=O)c2cc(NC(=O)c3ccc(/C=C/c4cnc5ccccc5c4)cc3)cn2C)cn1C)NC` [Ia10, 1-methyl-4-(1-methyl-4-(4-((E)-2-(quinolin-3-yl)vinyl)benzamido)-1H-pyrrole-2-carboxamido)-N—((Z)-3-(methylamino)-3-(methylimino)propyl)-1H-pyrrole-2-carboxamide], the results for the pIC50 in assay [2] and in assay [3] were above 7.30 and 6.60 to 7.30, respectively. For the same molecule, the MIC99 in assay [1] was in the range of 5 to 25 µg/mL (≈ 8.11 to 40.5 µM).

Turning to `CCCCNC(=O)c1cc(NC(=O)c2cc(NC(=O)c3ccc(/C=C/c4cnc5ccccc5c4)cc3)cn2C)cn1C` [IVa5, (E)-N-butyl-1-methyl-4-(1-methyl-4-(4-(2-(quinolin-3-yl)vinyl)benzamido)-1H-pyrrole-2-carboxamido)-1H-pyrrole-2-carboxamide], the pIC50 in assay [2] was 6.00 to 6.60. In addition, in assay [3] (Amides), the “T.b. brucei Selectivity Indices” value is “D (Group D: SI > 3)”. Besides, in assay [3], the pIC50 was 6.00 to 6.60 and the “T.b. brucei Selectivity Index” value came to 6.

These data come from patent US20250313546A1, “NUCLEIC ACID BINDERS” (UNIVERSITY OF STRATHCLYDE, priority 2022, published 2025).
